Measurements from publication PMC4336329 (PLoS ONE, 2015).
About 14,000 (4.5%) of roughly 310,000 compounds showed an effect of 50% or more. The effect is printed as a negative number. The list shows a part of the results.

These molecules were tested against human ether-à-go-go-related gene (hERG) potassium channel (human, UniProt Q12809) (assay: primary screen, population patch clamp on CHO cells stably expressing hERG).
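Also: peak tail current of the secondary pulse compared with the same well before compound.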

human ether-à-go-go-related gene (hERG) potassium channel, sequence (Q12809 whole entry, looked up): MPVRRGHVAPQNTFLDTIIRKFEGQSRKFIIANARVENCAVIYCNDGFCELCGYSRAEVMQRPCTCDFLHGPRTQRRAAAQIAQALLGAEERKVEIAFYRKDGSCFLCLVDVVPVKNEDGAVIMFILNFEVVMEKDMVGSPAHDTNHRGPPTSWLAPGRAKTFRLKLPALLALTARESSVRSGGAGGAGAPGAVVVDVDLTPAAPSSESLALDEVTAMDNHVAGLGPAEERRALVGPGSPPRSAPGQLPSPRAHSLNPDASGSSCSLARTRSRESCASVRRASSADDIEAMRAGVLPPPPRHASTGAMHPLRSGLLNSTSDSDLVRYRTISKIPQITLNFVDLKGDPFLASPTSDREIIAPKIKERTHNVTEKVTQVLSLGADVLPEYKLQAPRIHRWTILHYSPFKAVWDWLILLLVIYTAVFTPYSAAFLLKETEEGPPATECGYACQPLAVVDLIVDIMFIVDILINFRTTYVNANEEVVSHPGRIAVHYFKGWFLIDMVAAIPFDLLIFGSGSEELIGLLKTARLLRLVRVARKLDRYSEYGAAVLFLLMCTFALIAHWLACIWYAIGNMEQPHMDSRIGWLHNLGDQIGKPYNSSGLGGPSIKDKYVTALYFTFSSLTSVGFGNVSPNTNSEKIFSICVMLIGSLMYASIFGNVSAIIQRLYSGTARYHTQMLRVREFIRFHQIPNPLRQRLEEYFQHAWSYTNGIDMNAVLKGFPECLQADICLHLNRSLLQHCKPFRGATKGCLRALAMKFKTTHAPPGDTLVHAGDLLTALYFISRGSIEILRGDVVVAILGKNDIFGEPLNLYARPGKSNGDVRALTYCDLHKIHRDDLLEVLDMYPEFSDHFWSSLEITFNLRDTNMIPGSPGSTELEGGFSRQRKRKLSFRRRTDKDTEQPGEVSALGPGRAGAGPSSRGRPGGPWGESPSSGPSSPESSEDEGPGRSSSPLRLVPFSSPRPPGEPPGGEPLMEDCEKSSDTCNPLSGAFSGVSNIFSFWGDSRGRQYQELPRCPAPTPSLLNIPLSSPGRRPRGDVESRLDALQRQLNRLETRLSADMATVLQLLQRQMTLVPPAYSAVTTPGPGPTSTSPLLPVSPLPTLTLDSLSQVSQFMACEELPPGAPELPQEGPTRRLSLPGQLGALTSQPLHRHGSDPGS

Row | Compound | hERG current change (%, negative = inhibition) at 10uM [%]
1 | CCOC(=O)C1CCN(C(=O)Nc2ccc(C)c(Cl)c2)CC1 | 4.97
2 | CCOc1ccc(/C=C/C2=NNC(=O)CC2)cc1 | 1.19
3 | O=C(CN1CCOCC1)n1c2ccccc2c2ccccc21 | -12.4
4 | O=C(C1CCCN(S(=O)(=O)c2ccc(F)cc2)C1)N1CCCC1 (centres unmarked) | 5.78
5 | CCOC(=O)C(CCCOc1ccccc1)C(=O)OCC | -14.3
6 | O=C(c1ccco1)N1CCC(c2nc3c(nnn3Cc3c(Cl)cccc3Cl)c(=O)[nH]2)CC1 | -24
7 | Nc1nn(-c2ccccc2)c2ccc([N+](=O)[O-])cc12 | -8.8
8 | CCCCC1CCC(C(=O)N(CC(C)C)c2c(N)n(Cc3ccccc3)c(=O)[nH]c2=O)CC1 (centres unmarked) | 0.284
9 | C/C(=N\NC(=O)CC(C)C)c1c(C(F)(F)F)[nH]n(-c2nc3ccccc3s2)c1=O | 8.88
10 | COc1ccc(NC(=O)CN(c2ccccc2)S(=O)(=O)N(C)C)cc1Cl | 14.1
11 | Cc1cc(Cl)ccc1OCC(=O)Nc1cccc(S(=O)(=O)NC2=NCCCCC2)c1 | -6.33
12 | CCOC(=O)CSc1nnc(-c2ccc([N+](=O)[O-])cc2)o1 | -8.45
13 | CCN(CC)c1cccc(OCC(=O)N(C)CCC#N)c1 | 18.9
14 | CCNc1nc(N2CCCC2)nc(N2CCCC2)n1 | -14.7
15 | COC(=O)CSc1nc(C)c(Oc2ccccc2)c(=O)[nH]1 | 11.6
16 | Cc1ccc(S(=O)(=O)Nc2ccc(Nc3ccccc3)cc2)cc1 | 5.3
17 | O=C(NNC(=O)c1cnccn1)c1ccc(Cl)cc1 | 10.1
18 | C=CCOc1c(Br)cc(CNc2ccc(NC(=O)C(C)C)c(OC)c2)cc1OC | -10.2
19 | CCCc1cc(=O)n2[nH]cc(-c3ccc(Cl)cc3)c2n1 | 1.83
20 | CCCC(=O)Nc1sc(C(=O)OC)c(C)c1C(N)=O | -35.3
21 | CCOC(=O)c1c(C)c(C(=O)Nc2ccc(F)cc2)c(C)n1C | 16.1
22 | CCOc1cc2c(cc1C(C)(C)C)NC(=O)CS2 | 5.5
23 | COc1ccc(NC(=O)c2ccc([N+](=O)[O-])o2)cc1 | 11.1

Row | Compound | hERG current change (%, negative = inhibition) at 10uM [%]
24 | CN(/N=C/c1ccc(O)cc1O)c1ncc(C(F)(F)F)cc1Cl | 2.45
25 | Cc1c(NS(=O)(=O)c2ccc(N=NN(C)C)cc2)c(=O)n(-c2ccccc2)n1C | -1.97
26 | COc1ccc(CCNC(=O)C2CC3Cn4c(nc5ccccc54)C3N2Cc2ccccc2)cc1 (centres unmarked) | -49.7
27 | COc1cc(OC)c(N2CC34C=CC(O3)C(C(=O)O)C4C2=O)cc1Cl (centres unmarked) | 4.99
28 | CCCC(c1nnnn1CS(=O)(=O)c1ccc(C)cc1)N1CCC(C(N)=O)CC1 (centres unmarked) | -27.7
29 | CC1CCN(CCOc2cc(Cl)ccc2Cl)CC1 | -33.8
30 | O=C(Nc1ccc(Oc2ccccc2)cc1)C1CCCN(c2ncccn2)C1 (centres unmarked) | 4.47
31 | CCOC(=O)C1C(=O)C=C(c2cccs2)CC1c1ccccc1C (centres unmarked) | 3.85
32 | COc1ccc(CNC(=O)C2CCCN(S(=O)(=O)c3ccc4c(c3)C(C)(C)C(=O)N4C)C2)cc1 (centres unmarked) | 18.3
33 | O=C(Nc1ccc2c3c(cccc13)CC2)c1ccc(Br)o1 | 7.21
34 | Cc1ccc2nsnc2c1S(=O)(=O)NCc1ccncc1 | 10.3
35 | CCn1c(CCNC(=O)c2ccc(Cl)cc2)n[nH]c1=S | 17.4
36 | Cc1ccccc1C(=O)NC(=S)NC1CCSC1=O (centres unmarked) | 2.8
37 | O=C(Nc1cccc(Cl)c1)Nc1sccc1-c1nc2ccccc2s1 | 23.8
38 | N#C/C(=C\c1ccc[nH]1)Sc1nc2ccccc2s1 | 10.5
39 | Cc1ccc(NC(=O)CC2SC(=O)N(c3ccccc3)C2=O)cc1 (centres unmarked) | 8.61
40 | Cc1ccc(/C(=N/Nc2ncnc3ccccc23)C(=O)O)cc1 | 24.6
41 | NC(=O)c1ccccc1NC(=O)c1ccoc1 | 11.2
42 | COCC1CCN(C(=O)C2CCC(=O)N(C3CCCC3)C2)CC1 (centres unmarked) | 12.1
43 | Cc1[nH]c(=O)[nH]c(=O)c1S(=O)(=O)Nc1cccc(C(F)(F)F)c1 | 15.7
44 | O=C(C1=C(O)C(=O)N(CC2CCCO2)C1c1ccc(Cl)cc1Cl)c1ccco1 (centres unmarked) | 18.5
45 | Cc1c(C(=O)NC2CCCCC2)oc2ccc(F)cc12 | 17.8
46 | CCCC(=O)C1=C(O)C(C(=O)OC)C(C)(C)CC1=NC (centres unmarked) | 1.82

Row | Compound | hERG current change (%, negative = inhibition) at 10uM [%]
47 | COc1ccc(NC(=O)c2cnn(-c3ccccc3)c2C)cc1 | -4.11
48 | CCc1nnc(NC(=O)C2Cc3ccccc3CN2S(=O)(=O)CC)s1 (centres unmarked) | -0.0496
49 | O=C1c2ccccc2C(Nc2cccnc2)N1Cc1ccc2c(c1)OCO2 (centres unmarked) | -24.3
50 | CN(CCc1ccccn1)C(=O)CCC1CCCN(C(=O)NC2CCCCC2)C1 (centres unmarked) | 17.4
51 | O=C(N/N=C\c1ccc(COc2ccc([N+](=O)[O-])cc2)o1)c1cccc(Cl)c1 | 4.17
52 | Cn1c(SCc2cc(=O)[nH]c(C(C)(C)C)n2)nnc1C(F)(F)F | 2.84
53 | CCCn1c(N)c(C(c2ccc(C(=O)OC)cc2)N2CCN(c3ccccc3)CC2)c(=O)[nH]c1=O (centres unmarked) | -9.93
54 | CCC(c1nnnn1Cc1ccccc1)N1CCN(c2ccc(OC)cc2)CC1 (centres unmarked) | -14.5
55 | COc1cccc(NC(=O)C2CCN(S(=O)(=O)c3ccc4c(c3)N(C(C)=O)CCO4)CC2)c1 | 8.52
56 | C(=N\N1CCN(Cc2ccccc2)CC1)/c1cccnc1 | -0.236
57 | O=C(Nc1cc(=O)[nH]c2ncnn12)c1ccccc1F | 11
58 | Cc1oc(-c2cccc(Cl)c2)nc1CS(=O)(=O)CC(=O)NCc1ccco1 | -28.2
59 | COc1ccc(CC(NC(C)=O)C(=O)NC2CCN(c3c4c(nc5ncnn35)CCC4)CC2)cc1OC (centres unmarked) | 8.39
60 | O=C(c1n[nH]c(=O)c2ccccc12)N1CCN(c2ccccc2Cl)CC1 | -27.5
61 | COc1ccc(NC(=O)c2cccnc2Cl)c(S(=O)(=O)N2CCOCC2)c1 | -3.91
62 | Cc1[nH]nc(SCC(=O)NCc2ccccc2)c1[N+](=O)[O-] | -0.419
63 | Cc1ccc(Cl)cc1NC(=O)CSC(N)=O | 9.69
64 | O=C(O)c1ccccc1C(=O)c1ccc(-c2ccccc2)cc1 | 17.2
65 | COc1ccc(N(CC(=O)NCC2CCCO2)S(=O)(=O)c2ccc(C)cc2)cc1OC (centres unmarked) | -3.96
66 | Cc1ccc(NC(=O)CCn2c(=O)c3cccn3c3ccccc32)c(C)c1 | -31
67 | COc1ccc(NC(=O)CC2(Cc3ccccc3)CCOC(C)(C)C2)cc1 (centres unmarked) | -5.51
68 | O=c1oc(-c2ccccc2[N+](=O)[O-])nc2ccccc12 | -2.4
69 | C[C@H]1CCC[C@]2(O[C@H](CCO)C[C@@H](O)[C@@H]2O)O1 | 1.77

Row | Compound | hERG current change (%, negative = inhibition) at 10uM [%]
70 | CC(C)Cn1c(N)c(C(=O)COC(=O)c2cc(-c3ccccc3)nc3ccccc23)c(=O)n(C)c1=O | -8.18
71 | CCOC(=O)/C(CCC[N+](C)(CC)CC)=N\O.[I-] | 22.2
72 | N=c1c(S(=O)(=O)c2ccc(Br)cc2)cc2c(=O)n3ccccc3nc2n1C1CCCCC1 | 22.8
73 | COc1ccc(C(=O)N/N=C\C(C)=C\c2ccccc2)cc1OC | -61.4
74 | COc1ccc(Cl)cc1NC(=S)N(Cc1ccc(C(=O)O)cc1)Cc1ccc(OC)c(OC)c1 | 14.8
75 | CN1CCN(c2ccc(NC(=O)c3ccc(-c4ccccc4F)o3)cc2)CC1 | -70
76 | O=C(Oc1ccc2c3c(c(=O)oc2c1)CCC3)c1ccco1 | -1.09
77 | Cc1cc(C)cc(C(=O)NCCC(=O)NCc2cc(=O)n(C)c(=O)n2C)c1 | 20.5
78 | CCCS(=O)(=O)N1CCN(C(=O)COc2ccccc2)CC1 | -13.3
79 | Cc1cc(NS(=O)(=O)c2ccc(NC(=S)NC(=O)c3ccc(F)cc3Cl)cc2)no1 | 3.81
80 | Br.CC(C)(C)C(=O)Cn1c(=N)n(Cc2ccccc2)c2ccccc21 | -48.2
81 | CNC(=O)CN(c1cc(OCCOC)c(Cl)cc1Cl)S(=O)(=O)c1ccccc1 | 4.83
82 | N#CCn1c2ccccc2c2nc3ccccc3nc21 | 14.4
83 | COC(=O)c1ccc(CN2C(=O)NC(c3ccccc3)(c3ccccc3)C2=O)o1 | -31.5
84 | O=Cc1cccn1-c1ncc(Br)cn1 | 3.67
85 | CCOC(=O)CC(=O)CSCC(=O)Nc1ccc(C)cc1 | -6.11
86 | CP(C)(=O)CCP(=O)(c1ccccc1)c1ccccc1 | 22
87 | CCOCCCNS(=O)(=O)c1ccc(NC(=O)CN2C(=O)c3ccccc3C2=O)cc1 | 11.6
88 | CCCN(CCC)Cc1c(C(=O)N/N=C/c2ccsc2)nnn1-c1nonc1N | -14.6
89 | CC1(C(=O)N2CCN(c3ccccc3)CC2)CC1(Cl)Cl (centres unmarked) | 6.47
